From paper PMC4336329 (PLoS ONE, 2015)
The campaign covered roughly 310,000 compounds. About 2,200 (0.71%) showed an effect of 50% or more. The effect is printed as a negative number. Some of the results follow.

What follows are molecules tested against human ether-à-go-go-related gene (hERG) potassium channel (human, UniProt Q12809) (assay: primary screen, population patch clamp on CHO cells stably expressing hERG).
Chain of human ether-à-go-go-related gene (hERG) potassium channel (Q12809 whole entry, looked up): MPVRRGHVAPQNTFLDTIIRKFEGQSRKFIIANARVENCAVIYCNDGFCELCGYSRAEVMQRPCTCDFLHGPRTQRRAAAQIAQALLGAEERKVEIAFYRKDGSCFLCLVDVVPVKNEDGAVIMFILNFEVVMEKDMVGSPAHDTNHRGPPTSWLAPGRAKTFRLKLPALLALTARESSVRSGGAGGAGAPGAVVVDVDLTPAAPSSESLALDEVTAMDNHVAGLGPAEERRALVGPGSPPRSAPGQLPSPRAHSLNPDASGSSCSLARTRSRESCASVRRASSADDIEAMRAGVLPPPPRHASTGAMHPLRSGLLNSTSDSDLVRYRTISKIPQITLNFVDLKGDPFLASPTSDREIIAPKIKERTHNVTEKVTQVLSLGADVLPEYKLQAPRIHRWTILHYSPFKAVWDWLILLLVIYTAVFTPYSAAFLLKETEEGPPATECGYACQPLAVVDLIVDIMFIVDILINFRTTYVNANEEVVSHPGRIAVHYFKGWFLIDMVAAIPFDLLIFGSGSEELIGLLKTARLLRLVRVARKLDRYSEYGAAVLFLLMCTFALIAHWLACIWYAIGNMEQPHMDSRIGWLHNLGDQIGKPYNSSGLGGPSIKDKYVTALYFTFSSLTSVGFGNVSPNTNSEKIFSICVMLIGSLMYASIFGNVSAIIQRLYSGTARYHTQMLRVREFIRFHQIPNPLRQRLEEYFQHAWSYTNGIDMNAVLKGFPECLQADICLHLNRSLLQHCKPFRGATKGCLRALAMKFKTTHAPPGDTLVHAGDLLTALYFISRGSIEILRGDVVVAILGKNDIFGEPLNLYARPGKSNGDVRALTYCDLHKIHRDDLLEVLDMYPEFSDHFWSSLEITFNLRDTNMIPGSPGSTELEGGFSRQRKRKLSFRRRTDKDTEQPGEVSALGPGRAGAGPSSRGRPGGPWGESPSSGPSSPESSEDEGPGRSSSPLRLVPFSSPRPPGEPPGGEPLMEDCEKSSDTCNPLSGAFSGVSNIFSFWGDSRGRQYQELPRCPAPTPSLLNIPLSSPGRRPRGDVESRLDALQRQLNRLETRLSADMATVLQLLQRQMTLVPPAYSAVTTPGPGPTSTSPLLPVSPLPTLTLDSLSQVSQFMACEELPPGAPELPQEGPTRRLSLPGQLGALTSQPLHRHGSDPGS
`Cc1ccc(N2C(=O)[C@@H]3[C@H](C2=O)C2c4ccccc4C=CN2[C@@H]3C(=O)c2ccco2)c(C)c1` (stereo partly drawn) was tested, and the “hERG current change (%, negative = inhibition) at 1uM” value was 3.42%.
For `COc1ccccc1-c1nc2cc3ccccc3cc2nc1-c1ccccc1`, the “hERG current change (%, negative = inhibition) at 1uM” value was 1.04%.
In the case of `O=C(NCCO)c1ccc2[nH]c3c(c2c1)CCCC3`, the “hERG current change (%, negative = inhibition) at 1uM” value is reported as 2.58%.
With `CCC1(CC)NC(=O)N(CC(=O)OC(C)C(=O)Nc2cc([N+](=O)[O-])ccc2OC)C1=O` (stereo not drawn) the “hERG current change (%, negative = inhibition) at 1uM” value was 6.25%.
In the case of `Cc1c(C(=O)N(C)CCC#N)oc2ccc(S(=O)(=O)N3CC(C)CC(C)C3)cc12` (stereo not drawn), the “hERG current change (%, negative = inhibition) at 1uM” value is reported as 2.4%.
In the case of `COc1ccc(Cl)cc1NC(=O)Nc1cc(C)on1`, the “hERG current change (%, negative = inhibition) at 1uM” value is reported as 8.52%.
In the case of `Cl.O=C(CC12CC3CC(CC(C3)C1)C2)NCC(c1ccc(F)cc1)N1CCOCC1` (stereo not drawn), the “hERG current change (%, negative = inhibition) at 1uM” value is reported as 12.5%.
In the case of `CC1CCc2c(C(=O)NCc3ccco3)csc2C1` (stereo not drawn), the “hERG current change (%, negative = inhibition) at 1uM” value is reported as 6.16%.
In the case of `Cc1cc(C)c2c(N)c(C(=O)NC3CCCC3)sc2n1`, the “hERG current change (%, negative = inhibition) at 1uM” value is reported as 13.9%.
In the case of `COc1ccc(-c2cc(-c3ccccc3)nc(SCC(=O)Nc3nccs3)c2C#N)cc1`, the “hERG current change (%, negative = inhibition) at 1uM” value is reported as 4.16%.
`COCc1cc(C)nc(OCC(=O)N/N=C/c2ccc(O)cc2O)c1C#N` was tested, and the “hERG current change (%, negative = inhibition) at 1uM” value was -1.29%.
With `O=C(COC(=O)c1cccc(Cl)c1)NCCN1C(=O)CSC1=O` the “hERG current change (%, negative = inhibition) at 1uM” value was 14.3%.
`CCN(CC)C(CNC(=O)c1cc(=O)[nH]c2ccccc12)c1ccccc1Cl` (stereo not drawn) was tested, and the “hERG current change (%, negative = inhibition) at 1uM” value was 7.59%.
For `O=c1c([N+](=O)[O-])cccn1Cc1cccc(Cl)c1`, the “hERG current change (%, negative = inhibition) at 1uM” value was 4.46%.
For `CC(=O)c1c(C)nc(-c2ccccc2)nc1N`, the “hERG current change (%, negative = inhibition) at 1uM” value was 21%.
For `CC(C)OC(=O)n1c(=S)oc2ccccc21`, the “hERG current change (%, negative = inhibition) at 1uM” value was 10.9%.
For `N#Cc1ccc(OCC(=O)Nc2ccc(N3CCCC3)cc2)cc1`, the “hERG current change (%, negative = inhibition) at 1uM” value was -0.546%.
In the case of `COc1ccc2c(CC(=O)Nc3ccc(OC)nc3)coc2c1`, the “hERG current change (%, negative = inhibition) at 1uM” value is reported as 9.62%.
For `CC(C)C(=O)NN(C(=O)c1ccccc1)c1ccccc1`, the “hERG current change (%, negative = inhibition) at 1uM” value was 10.6%.
`CCCC(=O)Nc1ccccc1NC(=O)c1ccc(OC)cc1` was tested, and the “hERG current change (%, negative = inhibition) at 1uM” value was 10.5%.
For `CCCc1nn(C)c(C(=O)Nc2ccccc2)c1Cl`, the “hERG current change (%, negative = inhibition) at 1uM” value was 8.22%.
`CN1CCN(CCOCCOc2c(Cl)cc(Cl)cc2Cl)CC1.O=C(O)C(=O)O` was tested, and the “hERG current change (%, negative = inhibition) at 1uM” value was 6.34%.
For `Cc1cc(C)c(S(C)(=O)=O)c(Oc2cccc(Cl)c2)n1`, the “hERG current change (%, negative = inhibition) at 1uM” value was 10.2%.
With `COc1ccc(-c2cc(C(=O)N3CCCC3)no2)cc1OC` the “hERG current change (%, negative = inhibition) at 1uM” value was 3.94%.
For `CCCCN(C)C(=O)c1nc2ccccn2c1CNCCCn1nnc2ccccc21`, the “hERG current change (%, negative = inhibition) at 1uM” value was 4.46%.
In the case of `CCNc1c(NS(=O)(=O)c2ccc(Cl)s2)c(=O)oc2ccccc12`, the “hERG current change (%, negative = inhibition) at 1uM” value is reported as 7.19%.
`NC(=O)c1ccc(SCC(=O)NC2CCCCC2)c([N+](=O)[O-])c1` was tested, and the “hERG current change (%, negative = inhibition) at 1uM” value was 10.4%.
In the case of `CCOC(=O)c1c(C)n(-c2ccc(C)cc2)c2ccc(O)c(CN(C)C)c12.Cl`, the “hERG current change (%, negative = inhibition) at 1uM” value is reported as -23.2%.
With `CCOC(=O)C1=C(C)NC(=S)NC1c1ccc(OCC(=O)N2CCCCCC2)c(OC)c1` (stereo not drawn) the “hERG current change (%, negative = inhibition) at 1uM” value was 12.6%.
`CCOC(=O)c1nnc(-c2ccc(C)cc2)nc1Oc1ccccc1Cl` was tested, and the “hERG current change (%, negative = inhibition) at 1uM” value was 6.33%.
With `Cc1ccnc(NC(=O)Nc2ccc(Br)cc2Cl)c1` the “hERG current change (%, negative = inhibition) at 1uM” value was 9.54%.
With `O=C1CN=C(c2ccc(Cl)cc2)c2oc3ccccc3c2N1` the “hERG current change (%, negative = inhibition) at 1uM” value was 12.8%.
In the case of `O=C(COc1cccc([N+](=O)[O-])c1)N/N=C/c1ccco1`, the “hERG current change (%, negative = inhibition) at 1uM” value is reported as 4.53%.
With `C=CC(C)(O)CCCC(C)CCCC(C)CCCC(C)C` (stereo not drawn) the “hERG current change (%, negative = inhibition) at 1uM” value was 12.2%.
`CN(C)S(=O)(=O)N(CC(=O)Nc1ccc2ccccc2c1)c1ccccc1` was tested, and the “hERG current change (%, negative = inhibition) at 1uM” value was 11.2%.
`CCN(CC)c1ccc(C2C(C(=O)OC(C)C)C(=O)CC(C)(O)C2C(=O)OC(C)C)cc1` (stereo not drawn) was tested, and the “hERG current change (%, negative = inhibition) at 1uM” value was 13.2%.
With `COC(=O)c1sccc1NC(=O)Nc1cc(C)ccc1OC` the “hERG current change (%, negative = inhibition) at 1uM” value was 9.54%.
For `CNC(=O)NC1CCCCc2sccc21` (stereo not drawn), the “hERG current change (%, negative = inhibition) at 1uM” value was -5.59%.
`Cc1ccc(C(=O)N2N=C(c3cccc(NS(C)(=O)=O)c3)CC2c2cccs2)cc1` (stereo not drawn) was tested, and the “hERG current change (%, negative = inhibition) at 1uM” value was 6.05%.
For `Cc1ccc(Cn2c(N3CCNCC3)nc3c2c(=O)[nH]c(=O)n3C)cc1`, the “hERG current change (%, negative = inhibition) at 1uM” value was 14%.
With `CCCCNC(=O)/C=C/c1ccc(OC)c(Br)c1` the “hERG current change (%, negative = inhibition) at 1uM” value was 7.5%.
In the case of `OCCCn1c(C2CCCN2c2nc(-c3ccc(Cl)cc3)cs2)nc2cc(C(F)(F)F)ccc21` (stereo not drawn), the “hERG current change (%, negative = inhibition) at 1uM” value is reported as 2.89%.
`Cc1ccc(C(=O)c2ccccc2C(=O)OCC(=O)Nc2ccc(SC(F)F)cc2)cc1` was tested, and the “hERG current change (%, negative = inhibition) at 1uM” value was 3.12%.
In the case of `CC1CCCN(C(=O)COC(=O)/C=C/c2ccc(C(F)(F)F)cc2)C1` (stereo not drawn), the “hERG current change (%, negative = inhibition) at 1uM” value is reported as 15.5%.
With `CC(=O)Nc1ccc(C2=NN(c3ccccc3)C(c3ccccc3)C2)cc1` (stereo not drawn) the “hERG current change (%, negative = inhibition) at 1uM” value was 5.35%.
With `O=C(COc1ccc(Cl)cc1)N/N=C/c1cccc2cccnc12` the “hERG current change (%, negative = inhibition) at 1uM” value was 7.98%.
`O=C(Nc1cccc(Cl)c1)C1C2CCC3C(CCC21)C3(Cl)Cl` (stereo not drawn) was tested, and the “hERG current change (%, negative = inhibition) at 1uM” value was 11.4%.
`CC1CCN(c2nc(NCc3ccco3)nc(N)c2[N+](=O)[O-])CC1` was tested, and the “hERG current change (%, negative = inhibition) at 1uM” value was 1.2%.
`Cc1ccccc1C(=O)NC(=S)Nc1ccccc1C(=O)O` was tested, and the “hERG current change (%, negative = inhibition) at 1uM” value was 7.8%.
With `COc1ccc2cc(CCNC(=O)c3ccco3)c(=O)[nH]c2c1` the “hERG current change (%, negative = inhibition) at 1uM” value was 10.9%.
`CCOC(=O)N1CCN(C(=O)c2c(O)c3cccc4c3n(c2=O)CC4)CC1` was tested, and the “hERG current change (%, negative = inhibition) at 1uM” value was 8.56%.
For `COc1ccc(Cl)cc1NC(=O)CCCNC(=O)c1ccc(Cl)cc1`, the “hERG current change (%, negative = inhibition) at 1uM” value was 3.79%.
With `Cc1ccccc1-n1ncc2c1CC(C)(C)CC2NC(=O)c1cn[nH]c1C` (stereo not drawn) the “hERG current change (%, negative = inhibition) at 1uM” value was 8.4%.
`COC(=O)c1ccc(C(=O)OC)c(NS(C)(=O)=O)c1` was tested, and the “hERG current change (%, negative = inhibition) at 1uM” value was 1.69%.
For `CCCn1nnc(NC(=O)C(C)C)n1`, the “hERG current change (%, negative = inhibition) at 1uM” value was 1.8%.
`COc1ccc(/C=C2/C(=O)N(c3ccccc3)N=C2C)cc1OC` was tested, and the “hERG current change (%, negative = inhibition) at 1uM” value was 9.6%.
`CCC1=C(OC(=O)N(CC)CC)N2C(=O)OC(=NCC3CC3)[C@]2(C)[C@H]2C1=CC[C@H]1C(=O)N(CC(=O)OC)C(=O)[C@H]12` was tested, and the “hERG current change (%, negative = inhibition) at 1uM” value was 0.812%.
